# In the supplement of paper PMC3334620:
# In all, about 33,000 sequences were measured (“E-score (-0.5 to 0.5)”: median about -0.054, highest 2% from about 0.35 on). The list shows a part of the results.
# Target: T1, Stb5 (UniProt P38699)
# T1 sequence: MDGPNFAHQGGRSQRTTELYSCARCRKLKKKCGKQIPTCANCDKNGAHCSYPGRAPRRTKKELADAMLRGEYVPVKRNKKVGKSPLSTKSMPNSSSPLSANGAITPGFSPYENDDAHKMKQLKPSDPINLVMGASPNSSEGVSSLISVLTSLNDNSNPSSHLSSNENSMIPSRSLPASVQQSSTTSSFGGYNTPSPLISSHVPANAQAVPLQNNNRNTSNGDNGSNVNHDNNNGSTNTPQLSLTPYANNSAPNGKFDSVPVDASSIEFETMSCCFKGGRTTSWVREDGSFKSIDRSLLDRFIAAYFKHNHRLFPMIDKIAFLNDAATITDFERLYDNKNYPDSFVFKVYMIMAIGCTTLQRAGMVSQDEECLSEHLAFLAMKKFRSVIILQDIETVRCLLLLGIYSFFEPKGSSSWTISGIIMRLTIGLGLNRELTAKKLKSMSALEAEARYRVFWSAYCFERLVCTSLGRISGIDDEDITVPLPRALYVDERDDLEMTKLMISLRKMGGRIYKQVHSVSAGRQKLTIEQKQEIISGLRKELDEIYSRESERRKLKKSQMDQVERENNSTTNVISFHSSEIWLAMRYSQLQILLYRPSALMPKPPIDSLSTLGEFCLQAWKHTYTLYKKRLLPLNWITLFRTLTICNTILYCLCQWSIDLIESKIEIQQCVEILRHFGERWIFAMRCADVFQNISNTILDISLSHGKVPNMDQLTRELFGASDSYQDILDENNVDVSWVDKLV
# Test: PBM E-score (8-mer binding enrichment) (E-score (-0.5 to 0.5)); higher = stronger / more preferred TF binding; most listed sequences are background and not binding sites
# Conditions: protein concentration: 200 nM; construct: GST-full length
# In short: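 For each ungapped eight-base word taken together with its reverse complement, the Universal PBM Analysis Suite assigned an E-score. Binding data came from GST-tagged yeast transcription factors, applied at about 100-200 nM, on universal all-10-mer Agilent arrays made double-stranded by primer extension. Fluorescent anti-GST marked bound protein, and scans were normalised with masliner.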
row,Sequence,PBM E-score
1,CTAGCCCA,-0.109
2,ATCAGCTA,-0.203
3,AGGACCTG,-0.165
4,CGCTCACA,0.0488
5,AGTTCAGA,-0.328
6,ATAGACGA,-0.0558
7,CCATGAAG,-0.0734
8,GCGCGCCC,-0.0714
9,GCGCACTA,0.0832
10,CTACAACA,-0.124
11,ACTATTGC,0.179
12,AAGTGAAA,-0.183
13,CCGTAACG,0.21
14,TCAGGAGA,-0.131
15,GGAGAGCC,-0.0532
16,AACGTGTC,-0.241
17,GAGGTAAA,0.0598
18,GAGGGAAC,0.0254
19,ACGGTATA,0.222
20,ATCCTGCC,-0.131
21,ACGTTGGG,-0.173
22,GCTTACAC,-0.00172
23,CCGCTCAC,0.269
24,GGAACAAC,0.13
25,CCGTTTGA,0.28

row,Sequence,PBM E-score
1,CCGTCTGA,0.155
2,ACTTAAGA,0.15
3,ACAATAGC,-0.175
4,GTGCGGCA,0.17
5,CGCCTTGC,-0.0758
6,AGGATTTG,-0.124
7,TGACGTAA,-0.159
8,ACCCAGAA,-0.129
9,AGGACTAC,-0.13
10,AAATTAGG,-0.142
11,ATCCCTGC,-0.0751
12,AATAATTC,0.127
13,ATAATGAA,-0.076
14,CAGGCACC,0.033
15,ATTTAGGA,-0.0827
16,AAGAGTCC,0.118
17,GCCTCTGA,-0.173
18,CTCGTCAG,-0.202
19,ACATGCCA,-0.128
20,CCGCTCTC,0.23
21,GACCAGAC,-0.106
22,CGGTCCCC,0.114
23,ACGCGGAG,0.199
24,AGGAGATA,0.147
25,GGGCCGTA,0.24

row,Sequence,PBM E-score
1,CGTCTTAG,-0.0432
2,ATAGCAGG,-0.055
3,CGCTGTAG,-0.0143
4,AACTCAGG,-0.237
5,GTCGCCAA,-0.0812
6,GAATTTAA,0.0497
7,TCACAACA,-0.0667
8,CACCAACA,-0.179
9,AAGAACTA,-0.0107
10,AGTGGCTC,-0.171
11,CATCTGTA,-0.106
12,AGGTACAG,-0.12
13,TAGAAACA,-0.188
14,TCGAGTCA,-0.0428
15,GATATTGA,0.0444
16,CGTCTGGC,0.029
17,CTACGCAG,-0.147
18,GCTGTAAA,-0.254
19,ATCGCAGC,-0.0733
20,AGGCTCCG,0.246
21,CCGGCAGC,0.217
22,ATACACAA,-0.134
23,AAACGGGG,0.327
24,GGGGGAGA,-0.0232
25,GCTAGGCA,-0.0388

row,Sequence,PBM E-score
1,ACACCTTC,0.103
2,AGCCGCGG,0.332
3,AGGACGGC,0.215
4,ATTCGACA,-0.133
5,TACAGCAA,-0.0577
6,AACCCTTA,-0.147
7,AACTGAAC,-0.0784
8,CGGGTTCC,0.128
9,AGGAAGGA,-0.407
10,CATAAAAC,0.0257
11,CCAGCTGA,-0.269
12,ATATGACA,-0.228
13,ATGTTGGG,-0.0312
14,CATGGCGA,-0.197
15,CTACCACA,-0.14
16,CCGCCTGC,0.223
17,CCACTCAA,-0.218
18,AAACGGCC,0.225
19,CCTGGAAA,-0.145
20,CGGGTTGA,0.128
21,TACGCGTA,-0.0195
22,GTGGAGAA,-0.104
23,CCTTCGCA,-0.187
24,GCTACCTA,-0.175
25,ACTACGAA,-0.249

row,Sequence,PBM E-score
1,GTTCCCTA,0.00145
2,GTGATGCA,-0.167
3,ACATCCGT,0.275
4,ATGGCTGG,-0.215
5,CCGGGGTC,0.338
6,ATCAAGGC,-0.0377
7,ACGCAACA,-0.084
8,GATCACCA,-0.108
9,CTCAGCAC,-0.252
10,CACCAGCA,-0.239
11,CCCCTCGC,-0.318
12,AATGCAGA,-0.231
13,CGTTCGAA,0.0218
14,GCTGATAA,0.181
15,GGACTACA,0.0839
16,CGGAAAAC,-0.078
17,CATAGATC,0.0237
18,TGGTGTAA,-0.0808
19,AAACTACG,0.0163
20,AACTAAAA,0.0936
21,CACTCCCA,-0.126
22,CGCATGAG,-0.19
23,AACGTATA,-0.0377
24,ATTCGTCG,0.0151
25,ATTACAAT,0.0184

row,Sequence,PBM E-score
1,TCTTGTCA,-0.252
2,AACGTCCG,0.375
3,GATCACTA,-0.0631
4,CGATAATA,0.115
5,TAAATTTA,-0.00595
6,AGTCCGCA,0.323
7,CGTCCGTC,0.21
8,CTTCGTCC,-0.0995
9,GAGCGGTA,0.316
10,ACAAAAGA,-0.0623
11,TAAAGCGA,0.0848
12,ATGGGTAC,-0.34
13,CACGATGC,-0.0434
14,AGTTTAGG,-0.149
15,AACCATCT,-0.115
16,AAGCTGAA,-0.152
17,GGAGCACC,0.0397
18,ATCGAGTG,-0.132
19,ACTTGCCG,0.0296
20,CTGACAAC,-0.132
21,AGTATGGC,-0.0165
22,ATCAGGAC,-0.214
23,AGGTTTCG,-0.179
24,ATCGCCGC,0.385
25,GTCCGCGA,0.266

row,Sequence,PBM E-score
1,AAGGTGCC,0.0693
2,GAGAATGA,-0.26
3,ACGGCTTC,0.091
4,GGCCTCCA,0.0474
5,GTTGATAA,-0.173
6,CTGCAGCC,-0.218
7,CGACCACG,-0.0915
8,CGTGGCCA,-0.163
9,CCATTTTA,0.0641
10,GGAAGGCA,-0.12
11,AATGCGCC,0.156
12,ATTTCTCC,0.269
13,AACTTTCT,0.0701
14,ATAGTAGC,0.0553
15,CGGATCGC,-0.0101
16,GGACGGCA,0.252
17,GTGTGACA,-0.158
18,GACCGCCC,0.322
19,ACCGTTTC,0.164
20,CTACCGTA,0.0526
21,AAGTCTGT,-0.305
22,CGGGTTGC,0.0193
